According to PubChem BioAssay AID1159614 (National Center for Advancing Translational Sciences (NCATS), 2016):
Out of some 45,000 compounds screened, about 65 (0.1%) were called active. Calls follow the shape of the dose curve; as a rule, active = well fitted activation curve with a large enough effect; inconclusive = small, poorly fitted or top-dose-only effect; inactive = no such curve, though single readings can be large or run the other way. This is one part of the list.

Biological target: Galactocerebrosidase (Homo sapiens) (UniProt P54803)
Sequence of UniProt P54803 (P54803 whole entry, looked up): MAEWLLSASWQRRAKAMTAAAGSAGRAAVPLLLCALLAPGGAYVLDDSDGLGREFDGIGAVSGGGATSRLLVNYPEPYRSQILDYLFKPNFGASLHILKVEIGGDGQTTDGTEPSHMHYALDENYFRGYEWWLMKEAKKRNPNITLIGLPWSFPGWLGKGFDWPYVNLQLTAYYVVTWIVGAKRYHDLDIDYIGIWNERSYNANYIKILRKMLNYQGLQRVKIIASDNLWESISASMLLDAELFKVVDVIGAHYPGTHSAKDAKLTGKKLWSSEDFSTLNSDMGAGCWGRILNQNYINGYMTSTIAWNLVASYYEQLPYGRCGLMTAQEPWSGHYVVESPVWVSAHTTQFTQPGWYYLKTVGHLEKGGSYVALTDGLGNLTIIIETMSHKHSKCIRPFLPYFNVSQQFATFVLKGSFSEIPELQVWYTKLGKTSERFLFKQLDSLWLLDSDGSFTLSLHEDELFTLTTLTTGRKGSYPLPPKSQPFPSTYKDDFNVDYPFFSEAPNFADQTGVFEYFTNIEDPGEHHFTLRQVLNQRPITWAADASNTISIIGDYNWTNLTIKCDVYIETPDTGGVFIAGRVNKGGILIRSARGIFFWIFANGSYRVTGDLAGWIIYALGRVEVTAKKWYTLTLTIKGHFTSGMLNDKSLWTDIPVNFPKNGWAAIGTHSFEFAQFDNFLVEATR
Experiment: A Novel Cell-Based Assay to Identify Small Molecules for B -Galactocerebrosidase; also: 0% is about no effect; nearly all actives have a fitted effect of over 65% in size
Details: 145M-Twi-hGALC-G270D cells, HMU-beta-Gal fluorescence, 48 h; series mostly up to 57.5 µM; activation: at the top concentration
Method in brief: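 qHTS, 1536-well; 145M-Twi-hGALC-G270D cells (WT line also made) in DMEM/F12 + 10% FBS; compound incubation on live cells; HMU-β-gal 0.1 mM final, pH 5.2, NaTC; carbonate stop; fluorescence increase = enhanced residual activity.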

activation, inactive:
CCOc1ccc(NC(=O)C2CCN(S(=O)(=O)c3c(C)noc3/C=C/c3cccs3)CC2)cc1 -12.2%
CCOC(=O)c1[nH]c(C)c(CCC(=O)Nc2cccc(SC)c2)c1C -8.42%
COc1ccc2cc(CNc3ccc(OC)c(OC)c3)c(=O)n(CC(=O)Nc3ccccc3F)c2c1 -18.6%
Cc1cccc(C)c1NC(=O)Cn1c(SCC(=O)NCc2ccccc2)nc2ccccc21 -10.3%
Cc1ccc(NC(=O)c2ncoc2-c2ccco2)cc1Cl -17.8%
Cc1cc(=O)[nH]c2nnc(SCc3ccc(C(F)(F)F)cc3)n12 -22%
Fc1cccc(Cl)c1CNCCSc1nnnn1-c1ccccc1 -27.4%
CC(C)CCNC(=O)c1ccc2c(c1)N(Cc1ccccc1F)C(=O)c1ccccc1S2(=O)=O -2.22%
O=C(Nc1cc2ccc(O)cc2oc1=O)c1ccccc1 -20.9%
O=S(=O)(c1ccc(-c2csc(=Nc3ccc(OC(F)(F)Cl)cc3)n2CCCO)cc1)N1CCCC1 -17%
O=C(CNC(=O)c1ccccc1F)OCc1cc(=O)n2nc(C3CCCCC3)sc2n1 2.21%
COc1cccc(C(=O)N(Cc2ccco2)c2ccccn2)c1 -10.2%
COc1ccc(OC)c(NC(=O)CSC2=Nc3ccccc3C3=NC(CC(=O)NCc4ccc(F)cc4)C(=O)N23)c1 (stereo unspecified) -11.3%
COc1ccc(C2CC(=O)c3c([nH]c(C(=O)OC4CCCCCC4)c3C)C2)cc1 (stereo unspecified) -21.2%
COc1cccc(OCC(=O)NC2CC(=O)N(c3ccc4c(c3)OCCO4)C2)c1 (stereo unspecified) -0.445%
COC(=O)c1ccccc1NC(=O)c1cc(C)nc2c1c(C)nn2-c1ccc(C)cc1 -10.3%
CC(C(=O)O)c1ccc(C(=O)c2ccccc2)s1 (stereo unspecified) -13.4%
COc1ccc2c(c1)c1c(c(=O)n(-c3ccc(OC)c(OC)c3)c(=O)n1CC(=O)N1CCCC1)n2C 24.3%
Cc1ccc(CNC(=O)CSc2ncc(S(=O)(=O)c3ccc(C)c(Cl)c3)c(=O)[nH]2)cc1 -13.4%
Cc1ccc(NC(=O)N2CCN(c3nnc(C)c4c(C)n(-c5ccc(Cl)cc5)nc34)CC2)c(C)c1 -6.71%
O=C(Nc1ccccc1O)c1cc(S(=O)(=O)N2CCCC2)ccc1Cl -10.8%
Cc1ccc(Cl)cc1NC(=O)NCc1cccn1Cc1ccc(F)cc1 -11.2%
Cc1ccc2nc(-c3ccc(NC(=O)c4ccccc4S(C)(=O)=O)cc3)sc2c1 -6.62%
COc1ccc(-c2nc(C)c(CCNC(=O)c3c(F)cccc3F)s2)cc1 -31.7%
CCOc1ccc(OCC)c(NC(=O)CCc2nc3cccnc3n2Cc2cccs2)c1 -4.7%
Cc1ccc(C)c(Cn2c(=O)n(CCC(=O)NCc3ccc4c(c3)OCO4)c(=O)c3sccc32)c1 -12.8%
Cc1cccc(Cc2c(C)nc3nc(SCc4ccccc4Cl)nn3c2C)c1 -1.3%
CN(C)c1ccc(CNC(=O)c2cnc3sc(N4CCCCCC4)nn3c2=O)cc1 1.16%
COC(=O)N1CCCc2cc(S(=O)(=O)N3CCN(c4ccccc4)CC3)ccc21 -17.1%
CCCCNC(=O)CCCn1c(=O)c2ccccc2n(Cc2c(C)cc(C)cc2C)c1=O -6.27%
COc1cc(Cl)c(C)cc1NC(=O)CSc1nc2c(c(=O)[nH]1)CCCC2 -9.12%
COc1ccc(C(=O)c2cn(Cc3cccc(C)c3)c3cc4c(cc3c2=O)OCO4)cc1 -10.2%
CS(=O)(=O)n1nc(-c2ccco2)nc1NCc1ccccc1Cl -27.9%
COc1ccc(CC(=O)NCCc2csc(-c3ccc(C(F)(F)F)cc3)n2)cc1 -9.83%
CCc1ccccc1NC(=O)Cn1c(=O)n(CC(=O)NCCc2ccccc2)c(=O)c2ccccc21 -10.2%
CCOC(=O)c1[nH]c(C)c(C(=O)NCc2cccc(OC)c2)c1C -9.55%
COc1cc(Cl)c(C)cc1NC(=O)CSc1cc(-c2ccccc2)nc(C)n1 -12.2%
COc1ccc(C2CC(=O)Nc3c2c(=O)n(C)c2nc4ccccc4n32)cc1 (stereo unspecified) -7.36%
COc1ccc(-c2noc(-c3ccc(C)cc3Cl)n2)cc1OC -11.6%
Cn1c(=O)c2c(SCC(=O)NCc3ccc(F)cc3)nc(-c3ccccc3Cl)nc2n(C)c1=O -1.98%
Cc1ccc(NS(=O)(=O)c2ccc3c(c2)[C@H]2C=CC[C@H]2[C@@H](c2ccc(F)cc2)N3)cc1C -9.55%
COC(=O)c1sc2cccc(F)c2c1S(=O)(=O)Nc1ccc(C)cc1Cl -3.96%
Cc1c(/C=C(\C#N)C(=O)Nc2cccc(Cl)c2)c2ccccc2n1Cc1ccccc1 -23.3%
Cc1ccc(SCc2nc(-c3ccc(C(=O)Nc4cc(C)ccc4C)cc3)oc2C)cc1 -18.3%
O=C(Nc1nnc(C2CC(=O)N(c3ccc(Cl)cc3)C2)s1)c1ccco1 (stereo unspecified) -10.9%
O=C(Nc1ccc2[nH]c(=O)c(=O)[nH]c2c1)c1cccc(F)c1 -15%
COc1ccccc1N1CCN(C(=O)CCn2nc(C)c(S(=O)(=O)N3CCCC3)c2C)CC1 -7.95%
NC(=O)NS(=O)(=O)c1ccc(N)cc1 -16.2%
Cc1ccc(NC(=O)CSc2nc3ccc(NC(=O)COc4ccc(C)cc4)cc3s2)cc1 -20.5%
Cc1nc2nc(SCC(=O)NCCc3ccc(Cl)cc3)nn2c(C)c1Cc1ccccc1Cl -10.3%
Cc1ccccc1C1=CCN(c2ncc(NC(=O)c3ccc(Cl)cc3)cc2C(=O)O)CC1 -18%
Cc1nc2c(-c3ccccc3)c(C)nn2c(C)c1CCC(=O)Nc1ccccc1F 3.72%
CCOC(=O)c1scc(-c2ccc(C)cc2)c1S(=O)(=O)N1CCN(c2ccccc2)CC1 -1.82%
Cc1cc(C)cc(NC(=O)C2CCN(c3nnc(-n4c(C)ccc4C)s3)CC2)c1 -0.699%
COc1ccc(S(=O)(=O)N(CC(=O)Nc2ccc(C)cc2)c2ccc(C)cc2)cc1OC -23.8%
CC(=O)c1ccc(NS(=O)(=O)c2ccc3[nH]c(=O)[nH]c3c2)cc1 -8.51%
COc1ccc(-n2c(SCC(=O)Nc3ccc4c(c3)OCO4)nc3c([nH]c4ccccc43)c2=O)cc1 -12.7%
CCOc1cc(C(=O)Nc2ccc3nc(N4CCN(C)CC4)cc(C)c3c2)cc(OCC)c1OCC -10.7%
CCc1cccc(NC(=O)CN(C)S(=O)(=O)c2ccc3c(c2)n(C)c(=O)c(=O)n3C)c1 -5.55%
COc1ccc(-c2noc(COc3ccc(C)cc3C)n2)cc1OC -17.4%
CCOc1ccccc1NC(=O)CN(c1cc(C)cc(C)c1)S(=O)(=O)c1c(C)nn(C)c1C -11.3%
